Molecules are shown by their SMILES. Whole data set: some 13,000 compounds, median “IFI” near 4, cut for the highest 2% near 17. The list shows a part of the results.

This experiment can be described thus: GSK_TCMDC: Inhibition Frequency Index (IFI). The number of non-kinase HTS assays where a compound showed > 50 % inhibition, expressed as a percentage of the number of such assays in which the compound was tested (-0 is zero). Type of experiment: functional.
Take `CC(CN1CCN(C)CC1)C(=O)Nc1ccc(-c2cccc(-c3nc4ccccc4[nH]3)c2)cc1` (stereo not given): the IFI was determined as 4.59%.

Take `CCN(CC)c1cc(C)c2cc(NC(=O)c3cc(=O)c4ccccc4o3)ccc2n1`: the IFI came out at 3.47%.

Compound `Cc1nc2c(Nc3nc(-c4ccncc4)cs3)ncnc2n1-c1ccccc1Cl` returned an IFI of 2.29%.

For the compound `CCN(CC)CCN(Cc1ccc(-c2ccc(C(F)(F)F)cc2)nc1)C(=O)Cn1cc(Cc2cnn(C)c2)c(=O)n2nc(-c3ccccc3)cc12`, the IFI stood at 7.8%.

The compound `C[C@@H](NC(=O)NC(CCN1CCC2(CC1)CN(S(C)(=O)=O)c1ccccc12)c1ccc(Cl)c(Cl)c1)c1ccccc1` (stereo not given in full) showed an IFI of 4.14%.

`O=C(NCc1cccc2ccccc12)c1ccc(CNC2CCN(Cc3ccccc3)CC2)cc1` returned an IFI of 5.88%.

For the compound `Fc1ccc2[nH]c(-c3cccc(-c4cccc(CNCC5CCCO5)c4)c3)nc2c1` (stereo not given), the IFI came to 4%.

Compound `O=C(O)CCSc1ncnc2[nH]cnc12` displayed an IFI of 2.92%.

As to `O=C(Nc1nccs1)c1cc(-c2cccnc2)nc2ccc(Br)cc12`, the IFI stood at 0%.

In turn, `COc1ccc2c(NN=Cc3ccccc3F)ccnc2c1` registered an IFI of 3.52%.

In turn, `OCCN1CCN(C(=S)Nc2ccccc2)CC1` yielded an IFI of 0%.

`COc1ccc(C=C2SC(=N)N(c3ccccc3OC)C2=O)cc1`: the IFI is 8.18%.

The compound `Cn1cncc1C(=O)Nc1cccc(-c2ccc(-c3nc4ccccc4[nH]3)cc2)c1` gave an IFI of 0.89%.

On to `Cc1c(CNCCCNc2nc3ccccc3[nH]2)sc(C(F)F)c1Br`, for which the IFI is 3.6%.

For the compound `Nc1ccnc2ccc(OCCCCCCc3ccccc3)cc12`, the IFI was 15.5%.

`CN(C)CCN(Cc1ccccc1-c1ccc(CNCCc2ccccc2)cc1)C(=O)c1ccccc1`: the IFI is 9.15%.

Consider `CCC(c1ccccc1)c1nn2c(-c3cccs3)nnc2s1` (stereo not given), for which the IFI was found to be 9.76%.

As to `CC1(CCc2ccccc2)N=C(N)N=C(N)C1c1ccc(Cl)c(Cl)c1` (stereo not given), the IFI worked out at 2.94%.

Compound `O=C(NCc1ccc(Cl)c(Cl)c1)c1cc(CNC2CCNCC2)ccc1O` yielded an IFI of 0.72%.

Compound `Cc1[nH]c(C)c(-c2ccc(-c3ccc(Cl)cc3)nc2)c(=O)c1Br` had an IFI of 1.83%.

`CCCCNC(=O)C1CCCN(C(=O)c2ccc(O)c(-c3ccc(Cl)c(Cl)c3)c2)C1` (stereo not given) returned an IFI of 1.47%.

In turn, `N=C(N)c1cccc(OCCCOc2cccc(NC(=O)Nc3ccc([N+](=O)[O-])cc3)c2)c1` had an IFI of 4.29%.

In the case of `O=C(NCc1cc2c(cc1Cl)OCO2)c1ccc(CNC2CCN(Cc3ccccc3)CC2)cc1`, the IFI was found to be 2.22%.

`OCCN1CCN(Cc2ccc(-c3ccc(-c4nc5cc(C(F)(F)F)ccc5[nH]4)s3)cc2)CC1` returned an IFI of 9.71%.

The compound `O=S(=O)(/C=C/c1ccccc1)N(Cc1ccc(-c2ccc(CNCCc3ccccn3)cc2)cc1)CC1CCCCN1` (stereo not given) returned an IFI of 7.89%.

In turn, `CN1CCC(NCc2ccc(-c3ccc(S(=O)(=O)NCc4ccccc4)cc3)cc2)CC1` had an IFI of 6.86%.

As to `CCCCCCNC(=O)C1Cc2c([nH]c3cc(Cl)ccc23)C2(CCN(Cc3ccccc3)CC2)N1` (stereo not given), the IFI is 7.19%.

`N#Cc1cccc(Nc2nccc(Nc3ccc(Oc4ccccc4)cc3)n2)c1`: the IFI worked out at 3.13%.

Consider `O=C(c1ccc(Cl)c(Cl)c1)N1CCc2c([nH]c3ccccc23)C1CN1CCCC1` (stereo not given), for which the IFI is 12.7%.

The compound `Cc1cc(N(CCN2CCCCC2)CCN2CCCCC2)nc(Nc2ccc(Cl)cc2)n1` displayed an IFI of 5.8%.

Compound `COc1ccccc1CN1CCC(CNC(=O)c2cc(-c3ccc(N(C)C)cc3)cs2)C1` (stereo not given) displayed an IFI of 13.7%.

As to `N#Cc1ccc(-c2ccc(C(=O)NCC3CCN(CCN4CCC(c5ccc6c(c5OCC(N)=O)CCCC6)CC4)CC3)cc2)cc1`, the IFI turned out to be 8.41%.

In the case of `COc1ccc(-c2ccc(NC(=O)c3cccc(F)c3)cc2)cc1CN1CCCN(C)CC1`, the IFI turned out to be 4.95%.

With `O=C(Cc1ccc(NC(=O)c2ccc(O)c(-c3ccc(Cl)c(Cl)c3)c2)cc1)NCc1cccc(C(F)(F)F)c1`, the IFI worked out at 3.68%.

Regarding `COC(=O)c1ccc(-c2ccc(C(=O)NCC3CCN(c4nc(N)c5cc(OC)c(OC)cc5n4)CC3)cc2)cc1`, the IFI is 6.25%.

In turn, `Cc1cccc(-n2nc(C)c3c2NC(=O)CC3C(=O)c2ccc(Cl)s2)c1` (stereo not given) showed an IFI of 2.33%.

`Clc1ccc2c(NCc3ccccc3)ccnc2c1`: the IFI turned out to be 8.33%.

`Cc1cc(OCCN2CCCCC2)ccc1NC(=O)c1cccc2c(=O)n(Cc3ccc(Cl)cc3)cnc12`: the IFI was 12.2%.

In turn, `CCOc1ccc(-c2nonc2NC(=O)c2ccccc2Cl)cc1OCC` registered an IFI of 1.45%.

Take `CN(C)C(=O)O[C@@H]1CN[C@H](C#Cc2cc3ncnc(Nc4ccc5c(cnn5Cc5cccc(F)c5)c4)c3s2)C1`: the IFI was 5.76%.

Consider `Fc1ccccc1CNc1ncc(-c2ccsc2)c(-c2nccs2)n1`, for which the IFI worked out at 5.81%.

`C[C@@]12C[C@@H](Nc3nc(NCCc4ccc(O)cc4)nc(N4CCNCC4)n3)C[C@@H](C1)c1cccc(Cl)c1O2`: the IFI turned out to be 20.9%.

`Cn1cncc1-c1cc2c(Nc3ccc(OCc4ccccc4)cc3)ncnc2cn1` returned an IFI of 3.7%.

`O=C(/C=C/c1ccc(Cl)c(Cl)c1)N1CCC(CCN2CCC(c3c[nH]c4ccccc34)CC2)CC1` came in with an IFI of 4.61%.

Turning to `COCCNCc1nc(-c2ccc3c(Nc4ccc(Cl)cc4F)ccnc3c2)cs1`, the IFI was determined as 5.26%.

`CN1CCN(c2ccnc3ccc(NC(=O)Cc4cccc(Cl)c4Cl)cc23)CC1` showed an IFI of 2.24%.

For `CN(C)C1CCN(CC#Cc2cc3ncnc(Nc4ccc(OCc5cccc(F)c5)c(Cl)c4)c3s2)CC1`, the IFI stood at 9.52%.

`CCNc1cc(C)nc(Nc2ccc(NC(=O)c3ccco3)cc2)n1` returned an IFI of 9.8%.

Turning to `OC1(c2ccccc2)CCN(Cc2cccc(-c3c[nH]c4nc(NC5CCCC5)ncc34)c2)C1` (stereo not given), the IFI turned out to be 8.33%.

Take `COc1cccc2c(N/N=C/c3ccccc3[N+](=O)[O-])ccnc12`: the IFI is 3.62%.

The compound `COc1c(CN2CCCC2)cccc1-c1cc2c(-c3ccc(C(=O)O)c(C(C)C)c3)ccnc2[nH]1` registered an IFI of -0%.

On to `Cc1noc(=O)c2ccc(NC(=O)C(O)(CSc3ccccc3)CC(C)C)cc12` (stereo not given), for which the IFI came to 1.85%.

As for `CC(C)=CCc1c(-c2ccc(O)cc2O)oc2c3c(cc(O)c2c1=O)OC(C)(C)C=C3`, the IFI came out at 9.09%.

Take `Fc1ccc2[nH]c(-c3cccc(-c4cccc(CNCCc5ccncc5)c4)c3)nc2c1`: the IFI was determined as 5.05%.

`COCCn1c(-c2nc(-c3ccc(F)cc3)cnc2N)nc2ccccc21`: the IFI is 1.42%.

Turning to `COc1ccc(CCN(C)CCOc2ccc(NC(=O)c3cc(SC)cc4c(=O)c5ccccc5[nH]c34)cc2)cc1OC`, the IFI is 6.14%.

The compound `Cc1sc2ncnc(Sc3nc4ccccc4[nH]3)c2c1C` yielded an IFI of 0.75%.

`O=C(Nc1ccc(C(F)(F)F)cc1)NC1CCN(c2ccnc3ccccc23)CC1` gave an IFI of 16.2%.

`Cc1cccc2nc(-c3ccc(-c4ccc(NC(=O)Nc5ccc(Cl)c(Cl)c5)cc4)cc3)[nH]c12` returned an IFI of 3.03%.

`NC1CCCN(Cc2cccc(-c3ccc(-c4nc5cc(C(F)(F)F)ccc5[nH]4)cc3)c2)C1` (stereo not given) had an IFI of 5.63%.

Take `CC(C)C[C@H](NC(=O)c1cc2ccccc2s1)C(=O)N[C@H]1CCN(Cc2ccc(OCCN3CCNCC3)c3ccccc23)C1`: the IFI is 3.45%.

Consider `CN1CCN(c2ccc(Nc3ncc(Cl)c(Nc4cccnc4C(N)=O)n3)cc2)CC1`, for which the IFI was found to be 16.2%.

In turn, `COc1cc2c(Nc3ccc(NC(=O)c4ccccc4)cc3)ncnc2cc1OCCCN1CCOCC1` yielded an IFI of 5.36%.

In turn, `Cn1cncc1C(=O)Nc1ccc(-c2cccc(-c3nc4cc(C(F)(F)F)ccc4[nH]3)c2)cc1` had an IFI of 2.68%.

As for `Nc1nc(N)c2c(ccc3c2ccn3C2C=CCCC2)n1` (stereo not given), the IFI was found to be 2.14%.

As to `Cn1nccc1C(=O)NCCNCc1ccc(-c2cccc(-c3nc4cc(C(F)(F)F)ccc4[nH]3)c2)cc1`, the IFI came out at 4.81%.

Compound `COc1ccc2c(=O)ccn(CCN3CCC(NCc4ccc5c(n4)NC(=O)CS5)CC3)c2c1` had an IFI of 2.17%.

For the compound `O=C(Nc1ccc(C(F)(F)F)cc1)c1cc(Br)cnc1NCCCn1ccnc1`, the IFI worked out at 1.67%.

Compound `CN(C)CC1c2[nH]c3ccccc3c2CCN1C(=O)Nc1ccc(Cl)c(Cl)c1` (stereo not given) returned an IFI of 6.38%.

Consider `COc1ccc(NC(C)C(=O)Nc2ccc(Br)cc2)cc1S(=O)(=O)N1CCCCC1` (stereo not given), for which the IFI was determined as 8.7%.

Compound `Fc1ccc2[nH]c(-c3ccc(-c4ccc(CNCCc5cccnc5)cc4)s3)nc2c1` registered an IFI of 7.95%.

Compound `Cc1nnsc1C(=O)Nc1ccc(-c2cccc(-c3nc4cc(C(F)(F)F)ccc4[nH]3)c2)cc1` showed an IFI of 7.96%.

In turn, `Cc1cccc2c3c([nH]c12)C1(CCN(CCc2ccccc2)CC1)NC(C(=O)NCc1ccccc1)C3` (stereo not given) displayed an IFI of 4.55%.

`O=C(NCCCN1CCN(c2cccc(Cl)c2)CC1)c1ccc(-c2nc3cc(Cl)c(Cl)cc3[nH]2)cc1` had an IFI of 0.74%.

`N#Cc1ccc(N2CCN(Cc3ccc(-c4ccc(-c5nc6cc(F)ccc6[nH]5)s4)cc3)CC2)nc1` had an IFI of 2.97%.

`COc1cc(-c2nc(-c3ccncc3)c(-c3ccc4c(c3)CCC4=NO)[nH]2)ccc1OCCN1CCCCC1` came in with an IFI of 3.68%.

For the compound `c1ccc2cc3c(Nc4ccc(N5CCCCC5)cc4)ccnc3cc2c1`, the IFI was found to be 0.81%.

Compound `CCCCN1CC[C@@H](CCC(O)c2cc(OCCC)nc3ccc(OC)cc23)[C@@H](CC)C1` (stereo not given in full) came in with an IFI of 5%.

In turn, `COc1cc(F)c2ncc(Cl)c(CCN3CCC(NCc4ccc5c(c4)OCCO5)CC3)c2c1` showed an IFI of 3.79%.

`CN1CCN(CCCN(Cc2ccc(-c3cccc(CNCc4ccc5c(c4)OCO5)c3)cc2)C(=O)CCC2CCCC2)CC1` had an IFI of 4.32%.

Take `CCN(CC)CCNC(=O)c1ccc(NC(=O)c2cn(-c3ccccc3)nc2-c2cccs2)cc1`: the IFI was 5.76%.

`CCCCNCc1ccc(-c2nc(CN(Cc3ccc(Cl)c(Cl)c3)S(=O)(=O)c3ccc(NC(C)=O)cc3)cs2)cc1` gave an IFI of 5.51%.

For `O=C(CCOc1ccccc1)NCC1CCCO1` (stereo not given), the IFI is -0%.

In turn, `O=C(NC(c1ccccc1)c1ccccc1)C(c1cc2ccccc2o1)N1CCN(C(c2ccccc2)c2ccccc2)CC1` (stereo not given) came in with an IFI of 1.46%.

As for `Oc1ccc2[nH]c(-c3cccc(F)c3)nc2c1CN1CCCC1`, the IFI turned out to be 0.96%.

The compound `CNc1nc(N/N=C/c2cc([N+](=O)[O-])c(Cl)cc2Cl)nc(Nc2cccc(C(F)(F)F)c2)n1` registered an IFI of 2.29%.

`O=C(Cc1cc(F)cc(F)c1)NC1CCN(c2ccnc3cc(Cl)ccc23)C1` (stereo not given) had an IFI of 3.08%.

Compound `O=C(Nc1ccc(SC(F)(F)F)cc1)Nc1ccnc2ccccc12` returned an IFI of 9.29%.

`COc1cc2s/c(=N\C(=O)c3cccc([N+](=O)[O-])c3)n(C)c2cc1OC` had an IFI of 1.72%.

In turn, `NC1=NC(c2ccccc2)(c2ccccc2)C(=O)N1CCCCc1ccccn1` yielded an IFI of 3.51%.

Source of the values: ChEMBL document CHEMBL1157539, “Thousands of chemical starting points for antimalarial lead identification” (Nature, 2010).
